For this experiment, the target named is T1, SENP5 catalytic domain (aa 568-755) (human, UniProt Q96HI0 568-755).
T1 sequence: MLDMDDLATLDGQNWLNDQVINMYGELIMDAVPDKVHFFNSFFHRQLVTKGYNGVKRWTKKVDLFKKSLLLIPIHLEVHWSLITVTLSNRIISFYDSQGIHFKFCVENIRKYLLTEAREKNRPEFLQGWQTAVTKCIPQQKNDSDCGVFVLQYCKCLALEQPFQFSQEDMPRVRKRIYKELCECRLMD
The experiment in a line: crystal structure.

The values below come from paper PMC12098989 (Nature Communications, 2025).

B1: Δ14SUMO2-PA (human SUMO2, 14 residues N-terminal deletion, C-terminal propargylamide) (domain or fragment)
chain: not shown
For the molecule B1, the binding result is reported as “binds”.
